From PubChem BioAssay (NCI)
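Dose response: 5 concentrations. Exposure: 48 h. Format: 96-well plates. Endpoint: linear interpolation; highest concentration if not reached. Abbreviation: GI50, concentration required for 50% inhibition of growth. TGI: total growth inhibition.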

What follows are compounds tested on NCI-H322M lung (assay: growth of human tumour cells (NCI), 48 h).

Row | SMILES | GI50 [µM] | TGI [µM]
1 | O=C(CCCCCCNC(=O)C(O)(O)C(F)(F)F)Nc1ccc(Br)cc1 | 5.75 | > 33
2 | CC[C@]12C=CCN3CC[C@]4(C(=C(C(=O)OC)C1)Nc1cc5c(cc14)[C@@H]1[C@H](O5)[C@@H](O)[C@@]4(CC)CC(C(=O)OC)=C5Nc6cc(OC)ccc6[C@@]56CCN1[C@@H]46)[C@@H]32 | 0.264 | 7.18
3 | CC(=O)OC[C@]12CC[C@@H](C(=O)/C=C/c3cccnc3)[C@@H]1[C@H]1CC[C@@H]3[C@@]4(C)CC[C@H](OC(C)=O)C(C)(C)[C@@H]4CC[C@@]3(C)[C@]1(C)CC2 | 2.51 | 6.7
